# The supplement of paper PMC6531468
# The other results are listed elsewhere or left out. Values come from read counts of a selection and are noisy. Each score is taken over the longer molecules that contain the sequence shown.
# Experiments:
# Test in all cases: 6-mer SELEX enrichment z-score vs GST control; IMP3 is the RNA-binding protein IGF2BP3; higher = more enriched by binding
# IMP3 KH1-4 = conditions: construct: KH1-4 (164-579); SELEX round: R4
# Description: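 SELEX-seq with GST-tagged IMP3 KH1-4 (Pro164-Lys579) and an N40 RNA pool, round 4. 6-mer z-score of sequence-tag enrichment normalised to the corresponding GST SELEX round; RNA k-mers written as DNA (T for U).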
# IMP3 RRM1-2 = conditions: construct: RRM1-2 (1-163); SELEX round: R2
# Description: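 SELEX-seq with GST-tagged IMP3 RRM1-2 (Met1-Asn163) and an N40 RNA pool, round 2. 6-mer enrichment z-score normalised to GST SELEX. RNA written as DNA (T = U).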
# IMP3 full-length = IMP3 full-length (UniProt O00425); conditions: construct: FL IMP3 (1-579); SELEX round: R4
# Description: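 SELEX-seq with GST-tagged full-length IMP3 and an N40 RNA pool, round 4. Each 6-mer is scored as an enrichment z-score of sequence tags containing it, normalised to the matching GST SELEX round. RNA written as DNA (T = U).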
# IMP3 KH1-2 = conditions: construct: KH1-2 (164-376); SELEX round: R4
# Description: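 SELEX-seq with GST-tagged IMP3 KH1-2 (Pro164-Phe376) and an N40 RNA pool, round 4 (stringent 300/600 mM KCl washes). 6-mer z-score of sequence-tag enrichment normalised to the corresponding GST SELEX round; RNA k-mers written as DNA (T for U).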
# IMP3 KH3-4 = conditions: construct: KH3-4 (377-579); SELEX round: R4
# Description: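 SELEX-seq with GST-tagged IMP3 KH3-4 (Pro377-Lys579) and an N40 RNA pool, round 4. 6-mer z-score of sequence-tag enrichment normalised to the corresponding GST SELEX round; RNA k-mers written as DNA (T for U).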
# IMP3 KH3-4, sequence (chain, as listed by the source): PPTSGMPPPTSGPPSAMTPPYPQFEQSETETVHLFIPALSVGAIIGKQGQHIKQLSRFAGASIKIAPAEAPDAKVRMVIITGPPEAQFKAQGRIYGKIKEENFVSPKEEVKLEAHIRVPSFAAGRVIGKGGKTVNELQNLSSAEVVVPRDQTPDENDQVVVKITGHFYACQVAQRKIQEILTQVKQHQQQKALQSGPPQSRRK
# IMP3 RRM1-2, sequence (chain, as listed by the source): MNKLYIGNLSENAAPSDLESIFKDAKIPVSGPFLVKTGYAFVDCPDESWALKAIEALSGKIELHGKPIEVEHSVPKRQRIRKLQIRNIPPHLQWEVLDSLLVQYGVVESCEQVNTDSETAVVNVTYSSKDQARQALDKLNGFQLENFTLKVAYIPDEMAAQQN
# UniProt O00425, sequence (O00425 whole entry): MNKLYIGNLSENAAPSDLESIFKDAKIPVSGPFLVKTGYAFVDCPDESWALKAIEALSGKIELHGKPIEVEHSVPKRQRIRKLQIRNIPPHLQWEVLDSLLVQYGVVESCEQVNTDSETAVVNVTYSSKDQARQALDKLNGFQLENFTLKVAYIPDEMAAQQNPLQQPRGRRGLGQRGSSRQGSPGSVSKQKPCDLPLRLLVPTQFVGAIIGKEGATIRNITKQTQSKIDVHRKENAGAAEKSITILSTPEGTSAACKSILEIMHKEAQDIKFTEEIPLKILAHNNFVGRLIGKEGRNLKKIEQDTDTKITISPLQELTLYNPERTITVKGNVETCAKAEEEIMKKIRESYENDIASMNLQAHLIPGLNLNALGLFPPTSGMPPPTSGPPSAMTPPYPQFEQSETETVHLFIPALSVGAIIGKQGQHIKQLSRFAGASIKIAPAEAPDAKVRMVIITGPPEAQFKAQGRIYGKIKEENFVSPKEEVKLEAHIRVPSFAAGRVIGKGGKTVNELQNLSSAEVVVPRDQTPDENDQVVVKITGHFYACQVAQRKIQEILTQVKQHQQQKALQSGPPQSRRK
# IMP3 KH1-2, sequence (chain, as listed by the source): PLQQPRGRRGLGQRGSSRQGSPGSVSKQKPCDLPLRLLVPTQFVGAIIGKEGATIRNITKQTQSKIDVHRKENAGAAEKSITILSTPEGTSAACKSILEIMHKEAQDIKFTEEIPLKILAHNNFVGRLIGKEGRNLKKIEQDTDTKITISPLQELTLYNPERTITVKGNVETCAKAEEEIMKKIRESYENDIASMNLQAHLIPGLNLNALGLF
# IMP3 KH1-4, sequence (chain, as listed by the source): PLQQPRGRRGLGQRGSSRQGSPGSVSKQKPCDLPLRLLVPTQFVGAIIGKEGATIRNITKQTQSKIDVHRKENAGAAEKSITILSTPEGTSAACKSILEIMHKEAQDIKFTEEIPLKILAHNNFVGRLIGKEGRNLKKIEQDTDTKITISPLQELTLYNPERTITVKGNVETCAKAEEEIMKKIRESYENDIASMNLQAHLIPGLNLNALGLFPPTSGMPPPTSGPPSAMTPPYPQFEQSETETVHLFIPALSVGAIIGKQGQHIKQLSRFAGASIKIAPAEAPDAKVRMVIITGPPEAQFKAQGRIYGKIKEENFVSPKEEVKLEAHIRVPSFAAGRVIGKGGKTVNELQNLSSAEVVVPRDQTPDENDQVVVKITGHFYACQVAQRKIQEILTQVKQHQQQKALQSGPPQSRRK
Sequence,6-mer SELEX enrichment z-score (IMP3 KH1-4),6-mer SELEX enrichment z-score (IMP3 RRM1-2),6-mer SELEX enrichment z-score (IMP3 full-length),6-mer SELEX enrichment z-score (IMP3 KH1-2),6-mer SELEX enrichment z-score (IMP3 KH3-4)
TTGAAG,-0.021,-0.466,-0.395,-0.133,0.231
CTTGAT,-0.228,0.037,-0.305,-0.264,-0.1
ATCTTG,-0.562,0.338,-0.032,-0.487,-0.454
TTGATA,0.409,-0.184,-0.247,0.23,0.801
ACGTTA,-0.323,-0.24,-0.505,-0.464,-0.288
CATGTA,0.882,0.395,0.635,0.557,0.734
GCTAAA,-0.32,-0.887,-0.793,-0.364,0.003
CTCTCC,0.106,0.069,-0.249,0.14,-0.409
TGGTAC,-0.512,0.491,0.138,-0.443,-0.439
TAGGGC,-0.197,0.395,0.228,-0.04,0.173
CGAACC,-2.17,-1.19,-1.62,-1.93,-2.47
CTACGT,-0.354,-0.042,-0.231,-0.288,-0.275
ACCTGT,-0.644,-0.437,-0.804,-0.659,-0.775
AGTGCT,-0.149,0.077,-0.055,-0.093,-0.049
GTCCAA,-0.569,-0.377,-0.491,-0.66,-0.807
CTGGTA,-0.328,0.278,-0.046,-0.235,-0.199
AAAAAA,-1.73,-2.85,-3.6,-1.28,0.369
CGCCTG,-0.553,-0.174,-0.288,-0.35,-0.73
CCAGGC,0.175,0.302,0.725,0.028,-0.296
GCCGAC,-1.15,-0.548,-0.342,-0.985,-1.28
